# The list shows a part of the results.
# Assays:
# Test in all cases: glycan array binding signal (z-score within array); higher = stronger binding
# Conditions in all cases: glycan notation: IUPAC condensed, linker removed
# [1] = molecular target: Fuc(a1-2)[Gal(a1-3)]Gal(b1-3)GlcNAc(b1-3)GalNAc
# Procedure, shortened: (§1)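 The Consortium for Functional Glycomics database supplied 3228 glycan arrays, of which those lacking an available protein sequence were dropped. The binding signal, a within-array Z-score, was averaged across arrays of the same protein sequence and across linkers. Negative scores can be read as non-binding.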
# [2] = molecular target: Fuc(a1-2)[Gal(a1-3)]Gal(b1-3)GlcNAc(b1-6)GalNAc
# Procedure, shortened: as §1
# [3] = molecular target: Fuc(a1-2)[Gal(a1-3)]Gal(b1-4)Glc
# Procedure, shortened: as §1
# [4] = molecular target: Fuc(a1-2)[Gal(a1-3)]Gal(b1-4)GlcNAc
# Procedure, shortened: as §1
# [5] = molecular target: Fuc(a1-2)[Gal(a1-3)]Gal(b1-4)GlcNAc(b1-2)Man
# Procedure, shortened: as §1
# [6] = molecular target: Fuc(a1-2)[Gal(a1-3)]Gal(b1-4)GlcNAc(b1-2)Man(a1-3)[Fuc(a1-2)[Gal(a1-3)]Gal(b1-4)GlcNAc(b1-2)Man(a1-6)]Man(b1-4)GlcNAc(b1-4)GlcNAc
# Procedure, shortened: as §1
# [7] = molecular target: Fuc(a1-2)[Gal(a1-3)]Gal(b1-4)GlcNAc(b1-2)Man(a1-3)[Fuc(a1-2)[Gal(a1-3)]Gal(b1-4)GlcNAc(b1-2)Man(a1-6)]Man(b1-4)GlcNAc(b1-4)[Fuc(a1-6)]GlcNAc
# Procedure, shortened: as §1
# [8] = molecular target: Fuc(a1-2)[Gal(a1-3)]Gal(b1-4)GlcNAc(b1-3)GalNAc
# Procedure, shortened: as §1
# [9] = molecular target: Fuc(a1-2)[Gal(a1-3)]Gal(b1-4)GlcNAc(b1-6)GalNAc
# Procedure, shortened: as §1
# [10] = molecular target: Fuc(a1-2)[Gal(a1-3)]Gal(b1-4)[Fuc(a1-3)]Glc
# Procedure, shortened: as §1
# [11] = molecular target: Fuc(a1-2)[Gal(a1-3)]Gal(b1-4)[Fuc(a1-3)]GlcNAc
# Procedure, shortened: as §1
# [12] = molecular target: Fuc(a1-2)[Gal(a1-3)]Gal(b1-4)[Fuc(a1-3)]GlcNAc(b1-3)GalNAc
# Procedure, shortened: as §1
# [13] = molecular target: Fuc(a1-2)[Gal(a1-4)]Gal(b1-4)GalNAc
# Procedure, shortened: as §1
# [14] = molecular target: Fuc(a1-2)[Gal(a1-4)]Gal(b1-4)GlcNAc
# Procedure, shortened: as §1
# [15] = molecular target: Fuc(a1-2)[GalNAc(a1-3)]Gal
# Procedure, shortened: as §1
# [16] = molecular target: Fuc(a1-2)[GalNAc(a1-3)]Gal(b1-3)GalNAc(a1-3)[Fuc(a1-2)]Gal(b1-4)GlcNAc
# Procedure, shortened: as §1
# [17] = molecular target: Fuc(a1-2)[GalNAc(a1-3)]Gal(b1-3)GalNAc(b1-3)Gal(a1-4)Gal(b1-4)Glc
# Procedure, shortened: as §1
# [18] = molecular target: Fuc(a1-2)[GalNAc(a1-3)]Gal(b1-3)GlcNAc
# Procedure, shortened: as §1
# [19] = molecular target: Fuc(a1-2)[GalNAc(a1-3)]Gal(b1-3)GlcNAc(b1-2)Man(a1-3)[Fuc(a1-2)[GalNAc(a1-3)]Gal(b1-3)GlcNAc(b1-2)Man(a1-6)]Man(b1-4)GlcNAc(b1-4)GlcNAc
# Procedure, shortened: as §1
# [20] = molecular target: Fuc(a1-2)[GalNAc(a1-3)]Gal(b1-3)GlcNAc(b1-2)Man(a1-3)[Fuc(a1-2)[GalNAc(a1-3)]Gal(b1-3)GlcNAc(b1-2)Man(a1-6)]Man(b1-4)GlcNAc(b1-4)[Fuc(a1-6)]GlcNAc
# Procedure, shortened: as §1
# [21] = molecular target: Fuc(a1-2)[GalNAc(a1-3)]Gal(b1-3)GlcNAc(b1-3)GalNAc
# Procedure, shortened: as §1
# [22] = molecular target: Fuc(a1-2)[GalNAc(a1-3)]Gal(b1-3)GlcNAc(b1-6)GalNAc
# Procedure, shortened: as §1
# [23] = molecular target: Fuc(a1-2)[GalNAc(a1-3)]Gal(b1-4)Glc
# Procedure, shortened: as §1
# [24] = molecular target: Fuc(a1-2)[GalNAc(a1-3)]Gal(b1-4)GlcNAc
# Procedure, shortened: as §1
# [25] = molecular target: Fuc(a1-2)[GalNAc(a1-3)]Gal(b1-4)GlcNAc(b1-2)Man
# Procedure, shortened: as §1
# [26] = molecular target: Fuc(a1-2)[GalNAc(a1-3)]Gal(b1-4)GlcNAc(b1-2)Man(a1-3)[Fuc(a1-2)[GalNAc(a1-3)]Gal(b1-4)GlcNAc(b1-2)Man(a1-6)]Man(b1-4)GlcNAc(b1-4)GlcNAc
# Procedure, shortened: as §1
# [27] = molecular target: Fuc(a1-2)[GalNAc(a1-3)]Gal(b1-4)GlcNAc(b1-2)Man(a1-3)[Fuc(a1-2)[GalNAc(a1-3)]Gal(b1-4)GlcNAc(b1-2)Man(a1-6)]Man(b1-4)GlcNAc(b1-4)[Fuc(a1-6)]GlcNAc
# Procedure, shortened: as §1
# [28] = molecular target: Fuc(a1-2)[GalNAc(a1-3)]Gal(b1-4)GlcNAc(b1-3)Gal(b1-4)GlcNAc
# Procedure, shortened: as §1
# [29] = molecular target: Fuc(a1-2)[GalNAc(a1-3)]Gal(b1-4)GlcNAc(b1-3)Gal(b1-4)GlcNAc(b1-3)Gal(b1-4)GlcNAc
# Procedure, shortened: as §1
# [30] = molecular target: Fuc(a1-2)[GalNAc(a1-3)]Gal(b1-4)GlcNAc(b1-3)GalNAc
# Procedure, shortened: as §1
# [31] = molecular target: Fuc(a1-2)[GalNAc(a1-3)]Gal(b1-4)GlcNAc(b1-3)[Fuc(a1-2)[GalNAc(a1-3)]Gal(b1-4)GlcNAc(b1-6)]GalNAc
# Procedure, shortened: as §1
# [32] = molecular target: Fuc(a1-2)[GalNAc(a1-3)]Gal(b1-4)GlcNAc(b1-6)GalNAc
# Procedure, shortened: as §1
# [33] = molecular target: Fuc(a1-2)[GalNAc(a1-3)]Gal(b1-4)[Fuc(a1-3)]GlcNAc
# Procedure, shortened: as §1
# [34] = molecular target: Fuc(a1-2)[GalNAc(a1-3)]Gal(b1-4)[Fuc(a1-3)]GlcNAc(b1-3)GalNAc
# Procedure, shortened: as §1
# [35] = molecular target: Fuc(a1-2)[GalNAc(a1-4)]Gal(b1-4)GlcNAc
# Procedure, shortened: as §1
# [36] = molecular target: Fuc(a1-2)[GalNAc(b1-3)]Gal
# Procedure, shortened: as §1
# Fuc(a1-3)GlcNAc = molecular target: Fuc(a1-3)GlcNAc
# Procedure, shortened: as §1
# [37] = molecular target: Fuc(a1-3)[Gal(b1-4)]Glc6S
# Procedure, shortened: as §1
# [38] = molecular target: Fuc(a1-3)[Gal(b1-4)]GlcNAc
# Procedure, shortened: as §1
# [39] = molecular target: Fuc(a1-3)[Gal(b1-4)]GlcNAc(b1-2)Man
# Procedure, shortened: as §1
# [40] = molecular target: Fuc(a1-3)[Gal(b1-4)]GlcNAc(b1-2)Man(a1-3)[Fuc(a1-3)[Gal(b1-4)]GlcNAc(b1-2)Man(a1-6)]Man(b1-4)GlcNAc(b1-4)GlcNAc
# Procedure, shortened: as §1
# [41] = molecular target: Fuc(a1-3)[Gal(b1-4)]GlcNAc(b1-2)Man(a1-3)[Fuc(a1-3)[Gal(b1-4)]GlcNAc(b1-2)Man(a1-6)]Man(b1-4)GlcNAc(b1-4)[Fuc(a1-6)]GlcNAc
# Procedure, shortened: as §1
# [42] = molecular target: Fuc(a1-3)[Gal(b1-4)]GlcNAc(b1-3)Gal(b1-3)[Fuc(a1-4)]GlcNAc
# Procedure, shortened: as §1
# [43] = molecular target: Fuc(a1-3)[Gal(b1-4)]GlcNAc(b1-3)Gal(b1-4)[Fuc(a1-3)]GlcNAc
# Procedure, shortened: as §1
# [44] = molecular target: Fuc(a1-3)[Gal(b1-4)]GlcNAc(b1-3)Gal(b1-4)[Fuc(a1-3)]GlcNAc(b1-3)Gal(b1-4)[Fuc(a1-3)]GlcNAc
# Procedure, shortened: as §1
# [45] = molecular target: Fuc(a1-3)[Gal(b1-4)]GlcNAc(b1-3)GalNAc
# Procedure, shortened: as §1
# [46] = molecular target: Fuc(a1-3)[Gal(b1-4)]GlcNAc(b1-4)Gal(b1-4)[Fuc(a1-3)]GlcNAc
# Procedure, shortened: as §1
# [47] = molecular target: Fuc(a1-3)[Gal(b1-4)]GlcNAc(b1-4)Gal(b1-4)[Fuc(a1-3)]GlcNAc(b1-4)Gal(b1-4)[Fuc(a1-3)]GlcNAc
# Procedure, shortened: as §1
# [48] = molecular target: Fuc(a1-3)[Gal(b1-4)]GlcNAc(b1-6)GalNAc
# Procedure, shortened: as §1
# [49] = molecular target: Fuc(a1-3)[Gal(b1-4)]GlcNAc(b1-6)[Gal(b1-3)GlcNAc(b1-3)]Gal(b1-4)Glc
# Procedure, shortened: as §1
# [50] = molecular target: Fuc(a1-3)[Gal(b1-4)]GlcNAc6S
# Procedure, shortened: as §1
# [51] = molecular target: Fuc(a1-3)[Gal3S(b1-4)]Glc
# Procedure, shortened: as §1
# [52] = molecular target: Fuc(a1-3)[Gal3S(b1-4)]Glc6S
# Procedure, shortened: as §1
# [53] = molecular target: Fuc(a1-3)[Gal3S(b1-4)]GlcNAc
# Procedure, shortened: as §1
# [54] = molecular target: Fuc(a1-3)[Gal3S(b1-4)]GlcNAc6S
# Procedure, shortened: as §1
# [55] = molecular target: Fuc(a1-3)[GalNAc(b1-4)]Gal(b1-4)GlcNAc
# Procedure, shortened: as §1
# [56] = molecular target: Fuc(a1-3)[GalNAc(b1-4)]GlcNAc
# Procedure, shortened: as §1
# [57] = molecular target: Fuc(a1-3)[GalNAc(b1-4)]GlcNAc6S
# Procedure, shortened: as §1
# Fuc(a1-4)GlcNAc = molecular target: Fuc(a1-4)GlcNAc
# Procedure, shortened: as §1
# Fuc(b1-3)GlcNAc = molecular target: Fuc(b1-3)GlcNAc
# Procedure, shortened: as §1
binder,measurement,setting,value
"LTL (Lotus tetragonolobus), P19664 (protein) VSFNYTEFKDDGSLILQGDAKIWTDGRLAMPTDPLVNNPKTTRSAGRALYATPVPIWDSATGNVASFVTSFNFLFVIRELKYTPTDGLVFFLAPVGTEIPSGSTGGFLGIFDGSNGFNQFVAVEFDSYHNIWDPKSLRSSHVGIDVNSIMSLKAVNWNRVSGSLEKATIIYDSQTNILSVVMTSQNGQITTIYGTIDLKTVLPEKVSVGFSATTGNPEREKHDIYSWSFTSTLKEPEEQA",glycan array binding signal (z-score),[1],-0.25
same,glycan array binding signal (z-score),[2],0.017
same,glycan array binding signal (z-score),[3],-0.211
same,glycan array binding signal (z-score),[4],-0.206
same,glycan array binding signal (z-score),[5],-0.28
same,glycan array binding signal (z-score),[6],-0.154
same,glycan array binding signal (z-score),[7],-0.143
same,glycan array binding signal (z-score),[8],0.053
same,glycan array binding signal (z-score),[9],-0.201
same,glycan array binding signal (z-score),[10],-0.357
same,glycan array binding signal (z-score),[11],-0.074
same,glycan array binding signal (z-score),[12],0.447
same,glycan array binding signal (z-score),[13],0.201
same,glycan array binding signal (z-score),[14],0.558
same,glycan array binding signal (z-score),[15],-0.25
same,glycan array binding signal (z-score),[16],-0.106
same,glycan array binding signal (z-score),[17],-0.302
same,glycan array binding signal (z-score),[18],-0.35
same,glycan array binding signal (z-score),[19],-0.222
same,glycan array binding signal (z-score),[20],-0.187
same,glycan array binding signal (z-score),[21],-0.092
same,glycan array binding signal (z-score),[22],-0.217
same,glycan array binding signal (z-score),[23],-0.237
same,glycan array binding signal (z-score),[24],-0.233
same,glycan array binding signal (z-score),[25],-0.189
same,glycan array binding signal (z-score),[26],-0.276
same,glycan array binding signal (z-score),[27],0.111
same,glycan array binding signal (z-score),[28],-0.032
same,glycan array binding signal (z-score),[29],0.628
same,glycan array binding signal (z-score),[30],-0.219
same,glycan array binding signal (z-score),[31],-0.325
same,glycan array binding signal (z-score),[32],-0.382
same,glycan array binding signal (z-score),[33],0.026
same,glycan array binding signal (z-score),[34],1.61
same,glycan array binding signal (z-score),[35],0.139
same,glycan array binding signal (z-score),[36],-0.15
same,glycan array binding signal (z-score),Fuc(a1-3)GlcNAc,0.747
same,glycan array binding signal (z-score),[37],0.071
same,glycan array binding signal (z-score),[38],0.51
same,glycan array binding signal (z-score),[39],-0.252
same,glycan array binding signal (z-score),[40],0.31
same,glycan array binding signal (z-score),[41],0.301
same,glycan array binding signal (z-score),[42],0.767
same,glycan array binding signal (z-score),[43],1.54
same,glycan array binding signal (z-score),[44],8.86
same,glycan array binding signal (z-score),[45],0.157
same,glycan array binding signal (z-score),[46],1.35
same,glycan array binding signal (z-score),[47],1.86
same,glycan array binding signal (z-score),[48],0.08
same,glycan array binding signal (z-score),[49],-0.012
same,glycan array binding signal (z-score),[50],0.157
same,glycan array binding signal (z-score),[51],-0.195
same,glycan array binding signal (z-score),[52],0.757
same,glycan array binding signal (z-score),[53],-0.14
same,glycan array binding signal (z-score),[54],-0.275
same,glycan array binding signal (z-score),[55],-0.071
same,glycan array binding signal (z-score),[56],-0.042
same,glycan array binding signal (z-score),[57],-0.039
same,glycan array binding signal (z-score),Fuc(a1-4)GlcNAc,-0.243
same,glycan array binding signal (z-score),Fuc(b1-3)GlcNAc,0.523

# — the supplement of paper PMC8728848
